Reference: the supplement of paper PMC8728848
The list shows a part of the results.

Key:
Assay in all cases: glycan array binding signal (z-score within array); higher = stronger binding
Details in all cases: glycan notation: IUPAC condensed, linker removed
Fuc(a1-2)Gal = target: Fuc(a1-2)Gal
Method in brief: (§1)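 Arrays were curated from the Consortium for Functional Glycomics database, 3228 in total, and kept only where the protein sequence was available. Binding is expressed as a within-array Z-score. This score was averaged across arrays of the same protein sequence at different concentrations or buffers and across linkers, and negative values can be read as non-binding.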

Fuc(a1-2)Gal(b1-3)GalNAc = target: Fuc(a1-2)Gal(b1-3)GalNAc
Method in brief: as §1

[1] = target: Fuc(a1-2)Gal(b1-3)GalNAc(b1-3)Gal
Method in brief: as §1

[2] = target: Fuc(a1-2)Gal(b1-3)GalNAc(b1-3)Gal(a1-4)Gal(b1-4)Glc
Method in brief: as §1

[3] = target: Fuc(a1-2)Gal(b1-3)GalNAc(b1-3)Gal(b1-4)Glc
Method in brief: as §1

[4] = target: Fuc(a1-2)Gal(b1-3)GalNAc(b1-4)[Neu5Ac(a2-3)]Gal(b1-4)Glc
Method in brief: as §1

[5] = target: Fuc(a1-2)Gal(b1-3)[Fuc(a1-4)]GlcNAc
Method in brief: as §1

Fuc(a1-2)Gal(b1-4)Glc = target: Fuc(a1-2)Gal(b1-4)Glc
Method in brief: as §1

Fuc(a1-2)Gal(b1-4)GlcNAc = target: Fuc(a1-2)Gal(b1-4)GlcNAc
Method in brief: as §1

[6] = target: Fuc(a1-2)Gal(b1-4)GlcNAc(b1-3)Gal(b1-4)GlcNAc
Method in brief: as §1

[7] = target: Fuc(a1-2)Gal(b1-4)GlcNAc(b1-3)Gal(b1-4)GlcNAc(b1-3)Gal(b1-4)GlcNAc
Method in brief: as §1

[8] = target: Fuc(a1-2)Gal(b1-4)[Fuc(a1-3)]GalNAc(b1-3)Gal(b1-4)[Fuc(a1-3)]GlcNAc
Method in brief: as §1

[9] = target: Fuc(a1-2)Gal(b1-4)[Fuc(a1-3)]GalNAc(b1-3)Gal(b1-4)[Fuc(a1-3)]GlcNAc(b1-3)Gal(b1-4)[Fuc(a1-3)]GalNAc
Method in brief: as §1

[10] = target: Fuc(a1-2)Gal(b1-4)[Fuc(a1-3)]GlcNAc
Method in brief: as §1

Fuc(a1-2)GlcNAc = target: Fuc(a1-2)GlcNAc
Method in brief: as §1

Fuc(a1-2)[Gal(a1-3)]Gal = target: Fuc(a1-2)[Gal(a1-3)]Gal
Method in brief: as §1

[11] = target: Fuc(a1-2)[Gal(a1-3)]Gal(b1-3)GlcNAc
Method in brief: as §1

[12] = target: Fuc(a1-2)[Gal(a1-3)]Gal(b1-4)Glc
Method in brief: as §1

[13] = target: Fuc(a1-2)[Gal(a1-3)]Gal(b1-4)GlcNAc
Method in brief: as §1

[14] = target: Fuc(a1-2)[Gal(a1-3)]Gal(b1-4)[Fuc(a1-3)]GlcNAc
Method in brief: as §1

[15] = target: Fuc(a1-2)[Gal(a1-4)]Gal(b1-4)GalNAc
Method in brief: as §1

[16] = target: Fuc(a1-2)[GalNAc(a1-3)]Gal
Method in brief: as §1

[17] = target: Fuc(a1-2)[GalNAc(a1-3)]Gal(b1-3)GlcNAc
Method in brief: as §1

[18] = target: Fuc(a1-2)[GalNAc(a1-3)]Gal(b1-4)Glc
Method in brief: as §1

[19] = target: Fuc(a1-2)[GalNAc(a1-3)]Gal(b1-4)GlcNAc
Method in brief: as §1

[20] = target: Fuc(a1-2)[GalNAc(a1-3)]Gal(b1-4)[Fuc(a1-3)]GlcNAc
Method in brief: as §1

[21] = target: Fuc(a1-2)[GalNAc(a1-4)]Gal(b1-4)GlcNAc
Method in brief: as §1

Fuc(a1-3)GlcNAc = target: Fuc(a1-3)GlcNAc
Method in brief: as §1

[22] = target: Fuc(a1-3)[Gal(b1-4)]GlcNAc
Method in brief: as §1

[23] = target: Fuc(a1-3)[Gal(b1-4)]GlcNAc(b1-4)Gal(b1-4)[Fuc(a1-3)]GlcNAc
Method in brief: as §1

[24] = target: Fuc(a1-3)[Gal(b1-4)]GlcNAc(b1-4)Gal(b1-4)[Fuc(a1-3)]GlcNAc(b1-4)Gal(b1-4)[Fuc(a1-3)]GlcNAc
Method in brief: as §1

[25] = target: Fuc(a1-3)[Gal3S(b1-4)]GlcNAc
Method in brief: as §1

[26] = target: Fuc(a1-3)[GalNAc(b1-4)]Gal(b1-4)GlcNAc
Method in brief: as §1

Fuc(a1-4)GlcNAc = target: Fuc(a1-4)GlcNAc
Method in brief: as §1

Fuc(b1-3)GlcNAc = target: Fuc(b1-3)GlcNAc
Method in brief: as §1

Gal(a1-2)Gal = target: Gal(a1-2)Gal
Method in brief: as §1

Gal(a1-3)Gal = target: Gal(a1-3)Gal
Method in brief: as §1

Gal(a1-3)Gal(b1-3)Glc = target: Gal(a1-3)Gal(b1-3)Glc
Method in brief: as §1

Gal(a1-3)Gal(b1-3)GlcNAc = target: Gal(a1-3)Gal(b1-3)GlcNAc
Method in brief: as §1

Gal(a1-3)Gal(b1-4)GlcNAc = target: Gal(a1-3)Gal(b1-4)GlcNAc
Method in brief: as §1

[27] = target: Gal(a1-3)Gal(b1-4)[Fuc(a1-3)]GalNAc
Method in brief: as §1

Gal(a1-3)GlcNAc = target: Gal(a1-3)GlcNAc
Method in brief: as §1

[28] = target: Gal(a1-3)[Gal(a1-4)]Gal(b1-4)GlcNAc
Method in brief: as §1

Gal(a1-4)Gal(b1-4)Gal = target: Gal(a1-4)Gal(b1-4)Gal
Method in brief: as §1

Gal(a1-4)Gal(b1-4)GalNAc = target: Gal(a1-4)Gal(b1-4)GalNAc
Method in brief: as §1

Gal(a1-4)GlcNAc = target: Gal(a1-4)GlcNAc
Method in brief: as §1

Gal(a1-6)Glc = target: Gal(a1-6)Glc
Method in brief: as §1

Gal(b1-2)Gal = target: Gal(b1-2)Gal
Method in brief: as §1

Gal(b1-3)Gal = target: Gal(b1-3)Gal
Method in brief: as §1

Gal(b1-3)GalNAc = target: Gal(b1-3)GalNAc
Method in brief: as §1

[29] = target: Gal(b1-3)GalNAc(b1-3)Gal(a1-4)Gal(b1-4)Glc
Method in brief: as §1

[30] = target: Gal(b1-3)GalNAc(b1-3)Gal(b1-4)Glc
Method in brief: as §1

[31] = target: Gal(b1-3)GalNAc(b1-3)Gal(b1-4)GlcNAc
Method in brief: as §1

[32] = target: Gal(b1-3)GalNAc(b1-4)Gal(b1-4)Glc
Method in brief: as §1

[33] = target: Gal(b1-3)GalNAc(b1-4)[Neu5Ac(a2-3)]Gal(b1-4)Glc
Method in brief: as §1

[34] = target: Gal(b1-3)[Fuc(a1-4)]GlcNAc
Method in brief: as §1

[35] = target: Gal(b1-3)[Fuc(a1-4)]GlcNAc(b1-3)Gal(b1-4)GlcNAc
Method in brief: as §1

[36] = target: Gal(b1-3)[Fuc(a1-4)]GlcNAc(b1-3)Gal(b1-4)[Fuc(a1-3)]GlcNAc
Method in brief: as §1

[37] = target: Gal(b1-3)[GlcNAc(b1-6)]GalNAc
Method in brief: as §1

[38] = target: Gal(b1-3)[GlcNAc(b1-6)]GlcNAc
Method in brief: as §1

B1: Siglec 6 (Homo sapiens), O43699 (protein)
chain: MLPLLLPLLWAGALAQERRFQLEGPESLTVQEGLCVLVPCRLPTTLPASYYGYGYWFLEGADVPVATNDPDEEVQEETRGRFHLLWDPRRKNCSLSIRDARRRDNAAYFFRLKSKWMKYGYTSSKLSVRVMALTHRPNISIPGTLESGHPSNLTCSVPWVCEQGTPPIFSWMSAAPTSLGPRTTQSSVLTITPRPQDHSTNLTCQVTFPGAGVTMERTIQLNVSYAPQKVAISIFQGNSAAFKILQNTSSLPVLEGQALRLLCDADGNPPAHLSWFQGFPALNATPISNTGVLELPQVGSAEEGDFTCRAQHPLGSLQISLSLFVHWKPEGRAGGVLGAVWGASITTLVFLCVCFIFRVKTRRKKAAQPVQNTDDVNPVMVSGSRGHQHQFQTGIVSDHPAEAGPISEDEQELHYAVLHFHKVQPQEPKVTDTEYSEIKIHK
glycan array binding signal (z-score) (Fuc(a1-2)Gal): -0.241 | glycan array binding signal (z-score) (Fuc(a1-2)Gal(b1-3)GalNAc): -0.218 | glycan array binding signal (z-score) [1]: 0.711 | glycan array binding signal (z-score) [2]: -0.228 | glycan array binding signal (z-score) [3]: 0.654 | glycan array binding signal (z-score) [4]: 0.11 | glycan array binding signal (z-score) [5]: -0.371 | glycan array binding signal (z-score) (Fuc(a1-2)Gal(b1-4)Glc): -0.333 | glycan array binding signal (z-score) (Fuc(a1-2)Gal(b1-4)GlcNAc): -0.214 | glycan array binding signal (z-score) [6]: -0.367 | glycan array binding signal (z-score) [7]: 0.134 | glycan array binding signal (z-score) [8]: -0.31 | glycan array binding signal (z-score) [9]: -0.355 | glycan array binding signal (z-score) [10]: -0.259 | glycan array binding signal (z-score) (Fuc(a1-2)GlcNAc): 0.45 | glycan array binding signal (z-score) (Fuc(a1-2)[Gal(a1-3)]Gal): -0.255 | glycan array binding signal (z-score) [11]: 0.089 | glycan array binding signal (z-score) [12]: -0.241 | glycan array binding signal (z-score) [13]: -0.056 | glycan array binding signal (z-score) [14]: 1.69 | glycan array binding signal (z-score) [15]: 1.21 | glycan array binding signal (z-score) [16]: -0.197 | glycan array binding signal (z-score) [17]: -0.263 | glycan array binding signal (z-score) [18]: -0.447 | glycan array binding signal (z-score) [19]: -0.109 | glycan array binding signal (z-score) [20]: 0.569 | glycan array binding signal (z-score) [21]: -0.217 | glycan array binding signal (z-score) (Fuc(a1-3)GlcNAc): -0.129 | glycan array binding signal (z-score) [22]: -0.51 | glycan array binding signal (z-score) [23]: -0.268 | glycan array binding signal (z-score) [24]: -0.444 | glycan array binding signal (z-score) [25]: -0.189 | glycan array binding signal (z-score) [26]: -0.009 | glycan array binding signal (z-score) (Fuc(a1-4)GlcNAc): -0.539 | glycan array binding signal (z-score) (Fuc(b1-3)GlcNAc): -0.16 | glycan array binding signal (z-score) (Gal(a1-2)Gal): -0.328 | glycan array binding signal (z-score) (Gal(a1-3)Gal): -0.267 | glycan array binding signal (z-score) (Gal(a1-3)Gal(b1-3)Glc): -0.13 | glycan array binding signal (z-score) (Gal(a1-3)Gal(b1-3)GlcNAc): -0.366 | glycan array binding signal (z-score) (Gal(a1-3)Gal(b1-4)GlcNAc): -0.293 | glycan array binding signal (z-score) [27]: -0.431 | glycan array binding signal (z-score) (Gal(a1-3)GlcNAc): -0.47 | glycan array binding signal (z-score) [28]: -0.5 | glycan array binding signal (z-score) (Gal(a1-4)Gal(b1-4)Gal): -0.157 | glycan array binding signal (z-score) (Gal(a1-4)Gal(b1-4)GalNAc): -0.358 | glycan array binding signal (z-score) (Gal(a1-4)GlcNAc): -0.074 | glycan array binding signal (z-score) (Gal(a1-6)Glc): 0.178 | glycan array binding signal (z-score) (Gal(b1-2)Gal): -0.401 | glycan array binding signal (z-score) (Gal(b1-3)Gal): -0.354 | glycan array binding signal (z-score) (Gal(b1-3)GalNAc): -0.375 | glycan array binding signal (z-score) [29]: -0.358 | glycan array binding signal (z-score) [30]: -0.105 | glycan array binding signal (z-score) [31]: -0.195 | glycan array binding signal (z-score) [32]: -0.373 | glycan array binding signal (z-score) [33]: -0.452 | glycan array binding signal (z-score) [34]: -0.439 | glycan array binding signal (z-score) [35]: -0.182 | glycan array binding signal (z-score) [36]: 0.013 | glycan array binding signal (z-score) [37]: -0.191 | glycan array binding signal (z-score) [38]: -0.279
